Whole data set: some 33,000 sequences, median “E-score (-0.5 to 0.5)” near -0.041, cut for the highest 2% near 0.37. This is one part of the list.
The sequences below were run against T1, Ecm22 (UniProt Q05958) (assay: PBM E-score (8-mer binding enrichment) (E-score (-0.5 to 0.5)); higher = stronger / more preferred TF binding; most listed sequences are background and not binding sites). Settings: protein concentration: 200 nM; construct: GST-full length.
T1 sequence: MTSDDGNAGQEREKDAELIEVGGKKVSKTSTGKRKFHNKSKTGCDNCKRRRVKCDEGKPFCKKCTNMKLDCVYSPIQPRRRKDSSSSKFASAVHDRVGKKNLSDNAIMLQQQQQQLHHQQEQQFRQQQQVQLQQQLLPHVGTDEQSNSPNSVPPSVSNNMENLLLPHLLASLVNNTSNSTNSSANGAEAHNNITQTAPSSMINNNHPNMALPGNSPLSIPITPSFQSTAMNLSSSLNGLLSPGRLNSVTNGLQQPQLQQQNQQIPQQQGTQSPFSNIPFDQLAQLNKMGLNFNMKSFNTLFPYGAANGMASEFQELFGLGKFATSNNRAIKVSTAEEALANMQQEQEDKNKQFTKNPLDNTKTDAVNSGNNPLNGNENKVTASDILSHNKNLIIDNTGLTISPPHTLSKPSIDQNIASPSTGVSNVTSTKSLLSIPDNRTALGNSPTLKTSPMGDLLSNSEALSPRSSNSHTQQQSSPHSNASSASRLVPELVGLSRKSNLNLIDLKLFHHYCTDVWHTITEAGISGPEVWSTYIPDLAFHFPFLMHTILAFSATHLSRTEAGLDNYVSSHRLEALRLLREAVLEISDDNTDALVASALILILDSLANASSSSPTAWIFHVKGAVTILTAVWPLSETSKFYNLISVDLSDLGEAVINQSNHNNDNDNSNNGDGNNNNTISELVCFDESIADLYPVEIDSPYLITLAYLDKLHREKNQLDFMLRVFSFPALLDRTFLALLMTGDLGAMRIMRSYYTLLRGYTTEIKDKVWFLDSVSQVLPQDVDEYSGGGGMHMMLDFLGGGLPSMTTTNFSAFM
How it was run: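 Yeast transcription factors, full-length or as DNA-binding domains, were expressed with a GST tag using PURExpress in vitro transcription/translation. At about 100-200 nM they were applied to universal all-10-mer Agilent arrays, double-stranded by primer extension on fresh or once-stripped slides. Fluorescent anti-GST detected bound protein, and masliner normalised the scans. E-scores for ungapped eight-base words, pooled with reverse complements, came from the Universal PBM Analysis Suite.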

| Sequence | PBM E-score |
| --- | --- |
| TGCGACAA | 0.141 |
| ACCCGAAC | 0.273 |
| AGGAAGGG | -0.211 |
| AATCTTGG | -0.37 |
| CGGCCGTA | 0.34 |
| CTCTAGCA | -0.206 |
| AAAAAAAA | -0.156 |
| ACTGTAGC | -0.0736 |
| CCGCCAGG | -0.179 |
| CAGTGAGC | -0.164 |
| TCCTCCCA | -0.135 |
| CACCCACA | -0.174 |
| CCACGGGA | -0.0405 |
| GATTATCC | -0.00311 |
| TAGACCCA | -0.295 |
| AGGTACAC | -0.0213 |
| CTACGGCC | 0.018 |
| CGTTCCCC | 0.428 |
| TGAATGCA | 0.109 |
| CCGGAATC | -0.169 |
| CGGGGCAC | -0.0581 |
| ACGATTTA | 0.245 |

| Sequence | PBM E-score |
| --- | --- |
| GGAATCCA | -0.207 |
| GGTAACGA | 0.317 |
| ACGTATGA | 0.17 |
| GATTTTCA | 0.0553 |
| AGGGGTAG | -0.0801 |
| AGACAGTA | -0.005 |
| GAAAGCTA | -0.13 |
| AACGTCTG | 0.111 |
| AATATCAT | -0.0211 |
| ACTCAACT | 0.0268 |
| TCCACAAA | -0.133 |
| AATCCTAA | -0.0278 |
| ACCCCTCC | -0.143 |
| AAGCCACT | -0.0688 |
| CTAGCAAA | -0.155 |
| AAGGAGAT | -0.103 |
| ACGAGACT | 0.348 |
| ACCCTACA | -0.0482 |
| CATTCGAC | 0.0337 |
| CCGCAGGC | 0.00157 |
| AATTGGGC | -0.163 |
| CCTAGTGC | -0.153 |

| Sequence | PBM E-score |
| --- | --- |
| AAGCAGAA | -0.0277 |
| GGCATGAA | 0.0607 |
| AGAACGCC | -0.083 |
| AATGTAAT | 0.115 |
| CCGCGTCC | -0.00121 |
| GATTAACC | 0.0103 |
| AATGCAAA | 0.0122 |
| GGACGTCA | -0.176 |
| GGCATCTA | -0.0106 |
| ATTCTTAG | -0.159 |
| ACAAACTA | -0.025 |
| ACACCCTG | -0.25 |
| AATTCTCG | 0.319 |
| CCCCCGTC | -0.206 |
| GATCTGGA | -0.179 |
| AGCTCGAT | 0.0946 |
| GAAGCTAA | -0.115 |
| GCTACTCC | -0.0977 |
| CTGTAAAA | -0.0594 |
| ACAGTATA | 0.165 |
| CGGCGAAG | 0.109 |
| GTATTGAA | 0.083 |

| Sequence | PBM E-score |
| --- | --- |
| AGTTCTCA | -0.137 |
| TATACCAA | 0.125 |
| AAAAAATA | 0.042 |
| TCTGGCAA | -0.17 |
| GCTATCAA | -0.00823 |
| AGGTTATG | -0.0657 |
| GTCTACCA | -0.215 |
| TGTCTCAA | -0.202 |
| AACAAATC | 0.115 |
| CGCGCGTA | 0.198 |
| CACGCCGA | -0.194 |
| ATGGGTGA | -0.2 |
| CCGACACG | 0.00977 |
| CTCTCTAC | -0.0212 |
| CGGTCGCA | 0.075 |
| GGGCACCA | -0.194 |
| GTTCCACA | 0.13 |
| ACTATTAT | 0.0484 |
| GGAGCCAC | -0.0846 |
| CCGCTGCG | 0.061 |
